Molecules are shown by their SMILES. Hit rate of the full screen: of about 310,000 compounds, about 2,200 (0.71%) showed an effect of 50% or more. Effects have a minus sign here. Some of the results follow.

human ether-à-go-go-related gene (hERG) potassium channel, sequence (Q12809 whole entry, looked up): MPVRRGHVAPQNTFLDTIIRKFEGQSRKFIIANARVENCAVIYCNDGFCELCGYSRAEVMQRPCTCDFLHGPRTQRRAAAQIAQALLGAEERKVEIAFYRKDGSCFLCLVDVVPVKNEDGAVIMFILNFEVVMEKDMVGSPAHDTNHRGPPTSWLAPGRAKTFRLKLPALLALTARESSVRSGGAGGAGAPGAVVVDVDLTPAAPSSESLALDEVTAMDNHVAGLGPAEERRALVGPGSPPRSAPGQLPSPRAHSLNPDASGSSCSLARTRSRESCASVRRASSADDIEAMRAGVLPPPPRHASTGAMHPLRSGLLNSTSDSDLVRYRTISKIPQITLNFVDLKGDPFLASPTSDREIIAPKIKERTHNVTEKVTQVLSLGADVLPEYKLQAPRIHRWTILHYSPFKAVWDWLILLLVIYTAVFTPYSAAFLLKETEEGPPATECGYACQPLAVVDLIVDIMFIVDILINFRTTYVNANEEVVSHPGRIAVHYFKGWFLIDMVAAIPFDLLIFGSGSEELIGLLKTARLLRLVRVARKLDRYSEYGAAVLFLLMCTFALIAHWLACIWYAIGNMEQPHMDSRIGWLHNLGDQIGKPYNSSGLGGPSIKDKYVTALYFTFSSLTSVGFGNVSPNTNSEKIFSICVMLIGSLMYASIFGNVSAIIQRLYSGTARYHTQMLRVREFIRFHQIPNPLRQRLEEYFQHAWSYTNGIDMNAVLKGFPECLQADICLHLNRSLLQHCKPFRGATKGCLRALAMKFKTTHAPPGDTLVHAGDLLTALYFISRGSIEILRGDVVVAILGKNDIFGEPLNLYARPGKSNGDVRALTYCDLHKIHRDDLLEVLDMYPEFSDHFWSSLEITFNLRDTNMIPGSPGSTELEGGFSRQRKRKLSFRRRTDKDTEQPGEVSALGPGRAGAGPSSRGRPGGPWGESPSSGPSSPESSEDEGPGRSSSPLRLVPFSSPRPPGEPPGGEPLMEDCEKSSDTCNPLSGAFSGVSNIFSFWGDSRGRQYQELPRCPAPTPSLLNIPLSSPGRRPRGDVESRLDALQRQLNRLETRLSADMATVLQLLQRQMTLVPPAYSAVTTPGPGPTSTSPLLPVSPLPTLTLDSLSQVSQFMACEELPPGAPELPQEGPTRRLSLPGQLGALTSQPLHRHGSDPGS

This assay concerns the target human ether-à-go-go-related gene (hERG) potassium channel (human, UniProt Q12809). Briefly: primary screen, population patch clamp on CHO cells stably expressing hERG.
As to `CC(=O)Nc1cccc(NC(=O)CSc2ccc(-c3ccccn3)nn2)c1`, the “hERG current change (%, negative = inhibition) at 1uM” value came to 8.15%. On to `O=c1c2ccccc2oc2cc(-c3ccc(CN4CCOCC4)cc3)ccc12`, for which the “hERG current change (%, negative = inhibition) at 1uM” value was 14.4%. On to `Cc1ccc(C(=O)Nc2ncc(Cc3ccc(SC(F)F)cc3)s2)cc1`, for which the “hERG current change (%, negative = inhibition) at 1uM” value was 10.8%. As for `CCC(=O)N(CCC1(c2ccccc2OC)CCOC(C(C)C)C1)Cc1ccco1` (stereo not shown), the “hERG current change (%, negative = inhibition) at 1uM” value was determined as 7.61%. As for `COC(=O)c1cc(OC)c(OC)cc1NC(=O)c1cc(OC)cc(OC)c1`, the figure is 5.88%; as for `CC(C)(C)c1ccc(C2/C(=C(\O)c3ccc4c(c3)OCCO4)C(=O)C(=O)N2CCCN2CCOCC2)cc1` (stereo not shown), 7.85%; as for `COc1ccc(C(=O)O)cc1F`, 13%.

Regarding `Cc1cccc(CCNC(=O)C2CCC(CNS(=O)(=O)c3cccs3)CC2)c1` (stereo not shown), the “hERG current change (%, negative = inhibition) at 1uM” value stood at 11.5%. As to `COC(=O)c1c(C)[nH]c(C(=O)C(C)[N+]23CCN(CC2)CC3)c1C.[Cl-]` (stereo not shown), the “hERG current change (%, negative = inhibition) at 1uM” value is reported as 11.6%.

For `N/C(COc1ccccc1)=N\NC(=O)c1cccnc1Oc1ccccc1`, the “hERG current change (%, negative = inhibition) at 1uM” value came out at 16.4%. Take `CC(CNC(=O)c1cc(COc2c(F)cccc2F)on1)c1ccccc1` (stereo not shown): the “hERG current change (%, negative = inhibition) at 1uM” value was found to be 0.341%. Consider `NC(=O)c1ccsc1N`, for which the “hERG current change (%, negative = inhibition) at 1uM” value is given as 12.3%.

Consider `CC1CCCCN1CCNC(=O)CN1C(=O)COc2ccccc21` (stereo not shown), for which the “hERG current change (%, negative = inhibition) at 1uM” value is reported as 12.5%. On to `Cc1ccc(CSc2nnc(NC(=O)Cn3cnc4ccccc4c3=O)s2)cc1`, for which the “hERG current change (%, negative = inhibition) at 1uM” value stood at 9.39%. For `FC(F)(F)c1cnc2c(c1)Nc1ccccc1S2`, the “hERG current change (%, negative = inhibition) at 1uM” value is listed as 5.69%. For the compound `CCCOc1ccc(N2CC(C(=O)Nc3ccc4c(c3)OCO4)CC2=O)cc1` (stereo not shown), the “hERG current change (%, negative = inhibition) at 1uM” value amounted to 13.9%. For `Cc1nc2nc[nH]n2c(=O)c1NS(=O)(=O)c1ccc(F)cc1`, the “hERG current change (%, negative = inhibition) at 1uM” value came to 19.5%. `Cc1cc(C)c(S(=O)(=O)N(C)Cc2cnn(C)c2)c(C)c1`: the “hERG current change (%, negative = inhibition) at 1uM” value is recorded as 3.65%. For `Cc1ccc(OCCNS(=O)(=O)c2cccs2)cc1`, the “hERG current change (%, negative = inhibition) at 1uM” value came out at 10.5%. As for `CCCCn1nnnc1NCc1ccc(C)cc1`, the figure is 15.1%; as for `O=C(CSc1nnc(NC(=O)c2c(F)cccc2F)s1)NC1CCCCC1`, 14.1%. Regarding `O=[N+]([O-])c1ccc(Sc2ccccc2)nc1`, the “hERG current change (%, negative = inhibition) at 1uM” value is given as 7.5%.

As to `CCc1ccc(-c2csc(NC(=O)c3cccnc3)n2)cc1`, the “hERG current change (%, negative = inhibition) at 1uM” value came out at 9.24%. As for `Cc1ccc(OCc2cc(C(=O)N3CCc4[nH]cnc4C3c3ccccn3)no2)cc1C` (stereo not shown), the figure is 6.76%; as for `CC(=O)N1CCN(C(=O)c2ccc(-c3ccccc3Cl)o2)CC1`, 0.228%.

In the case of `Cc1nc(C)c(-c2ccc(SCc3ccc(Cl)cc3)nn2)s1`, the “hERG current change (%, negative = inhibition) at 1uM” value stood at 10.3%. Take `CNC(=O)CCCN1C(=O)c2ccccc2Sc2ncccc21`: the “hERG current change (%, negative = inhibition) at 1uM” value was determined as 16.6%. `COC(=O)Nc1ccc(S(=O)(=O)N2CCCC(C(=O)N3CCCCC3)C2)cc1` (stereo not shown): the “hERG current change (%, negative = inhibition) at 1uM” value turned out to be 4.74%. Turning to `O=C(OCC(=O)N1CCCC1)c1cccc(Br)c1`, the “hERG current change (%, negative = inhibition) at 1uM” value was determined as 5.76%. Regarding `CCOC(=O)[C@H]1[C@H]2COc3ccccc3[C@@H]2N2C(=O)c3cc(OC)ccc3NC(=O)[C@@]12C`, the “hERG current change (%, negative = inhibition) at 1uM” value was 5.16%. For the compound `CCn1c(=O)n(CC(=O)N2CC(C)CC(C)C2)c(=O)c2ccccc21` (stereo not shown), the “hERG current change (%, negative = inhibition) at 1uM” value was -8.48%.

With `Nc1nc(SCCO)[nH]c(=O)c1NC(=O)c1ccco1`, the “hERG current change (%, negative = inhibition) at 1uM” value was found to be 15%. As for `C=CCC1(CC=C)CCCN1C(=O)Cn1nnnc1CN(C)C(C)C`, the figure is 16.4%. As to `CCCC(=O)Nc1ccc(N2CCOCC2)cc1`, the “hERG current change (%, negative = inhibition) at 1uM” value turned out to be 15.6%. As for `COc1cccc(C(=O)N2CCC3(CC2)OCCO3)c1`, the “hERG current change (%, negative = inhibition) at 1uM” value is 11%. `CCc1ccc(NC(=O)C2CCCN2C(=O)NC2CCCCC2)cc1` (stereo not shown): the “hERG current change (%, negative = inhibition) at 1uM” value is reported as 14.9%. Take `Cc1ccc(C(=O)c2ccc(C)cc2)cc1`: the “hERG current change (%, negative = inhibition) at 1uM” value amounted to 15.2%.

In the case of `COc1cc(OC)cc(C(=O)NNc2nc3cc4c(cc3s2)OCO4)c1`, the “hERG current change (%, negative = inhibition) at 1uM” value was determined as 13.1%.

As to `Cc1ccc(NC(=O)Cn2cc(C=O)c3ccccc32)cc1C`, the “hERG current change (%, negative = inhibition) at 1uM” value worked out at 11.1%.

On to `COC(=O)C1CN(C(=O)COc2cc(C)cc(C)c2)c2ccccc2O1` (stereo not shown), for which the “hERG current change (%, negative = inhibition) at 1uM” value came out at 14.3%. As for `CC1(C)C[C@@H]1C(=O)N/C(=C\CCCCSC[C@H](N)C(=O)O)C(=O)[O-].[Na+]`, the figure is 9.33%; as for `CCCCS(=O)(=O)c1sc2nc3c(cc2c1N)CCCC3`, 13.7%; as for `CNc1ccc(/C=C(\C#N)c2ccccn2)cc1[N+](=O)[O-]`, 18.5%.

For the compound `CC(C)CCn1c(CN2CCN(c3cccc(Cl)c3)CC2)nc2c1c(=O)n(C)c(=O)n2C`, the “hERG current change (%, negative = inhibition) at 1uM” value stood at 7.88%. For the compound `O=[N+]([O-])c1cc(Cl)cc(/C=N/n2cnnc2)c1O`, the “hERG current change (%, negative = inhibition) at 1uM” value is given as 13.4%. `CCN(CC)CCCNc1nc2ccccc2c2nc(-c3ccncc3)nn12`: the “hERG current change (%, negative = inhibition) at 1uM” value is given as -34.6%. As for `O=C(CNC(=O)C1CCCCC1)NC1CCCCC1`, the “hERG current change (%, negative = inhibition) at 1uM” value came out at 13.5%. As to `COc1ccc(C(=O)NC(=S)NNC(=O)[C@H]2C[C@@H]2c2ccccc2)cc1OC`, the “hERG current change (%, negative = inhibition) at 1uM” value came to 13.2%. As for `CC(C)(C)c1ccc(OCCC(=O)OCC(=O)NC(=O)NC2CCCC2)cc1`, the figure is 6.19%. As for `COc1ccc(NC(=O)Nc2nnc(-c3ccncc3)s2)cc1`, the figure is 25.4%; as for `Cc1ccc(S(=O)(=O)NCC(=O)N(c2ccccc2)C(C(=O)NCc2ccccc2)c2ccco2)cc1` (stereo not shown), -0.277%; as for `COc1cccc(NC(=S)N2CCN(C/C=C/c3ccccc3)CC2)c1`, -9.7%. For the compound `CCOC(=O)N1CCC(NC(=O)c2ccc(OC)c(CN3CC(=O)N4CCCC4C3=O)c2)CC1` (stereo not shown), the “hERG current change (%, negative = inhibition) at 1uM” value is given as 11.4%. For the compound `COc1ccccc1OCCOCCOc1ccc(C)cc1Br`, the “hERG current change (%, negative = inhibition) at 1uM” value is recorded as 13.5%. For `CCN(CC)c1ccc(C(=O)N2CCN(Cc3ccccc3)CC2)cc1`, the “hERG current change (%, negative = inhibition) at 1uM” value is recorded as 0.601%. `Cn1c(C(=O)O)c(S(=O)(=O)c2ccc(Cl)cc2)c2ccccc21`: the “hERG current change (%, negative = inhibition) at 1uM” value was determined as 15.3%. Take `Cc1ccc(S(=O)(=O)N2CCOCC2)cc1C(=O)OCC(=O)NC1CCS(=O)(=O)C1` (stereo not shown): the “hERG current change (%, negative = inhibition) at 1uM” value came to 13.8%.

As for `CC(=O)Nc1ccc(OCC[n+]2cccc(C(N)=O)c2)cc1.[Br-]`, the “hERG current change (%, negative = inhibition) at 1uM” value was found to be 17.1%.

For the origin of these results see publication PMC4336329 (PLoS ONE, 2015).
